Laboratory results as given in the BET-seq Pho4 binding data (Le et al. 2018).
Some of the results follow. These are noisy estimates, calculated here from bound and input reads.

target: T1, Pho4 (S. cerevisiae) (UniProt P07270); test: relative binding free energy (BET-seq); higher = weaker binding; conditions: reference: library average
T1 sequence: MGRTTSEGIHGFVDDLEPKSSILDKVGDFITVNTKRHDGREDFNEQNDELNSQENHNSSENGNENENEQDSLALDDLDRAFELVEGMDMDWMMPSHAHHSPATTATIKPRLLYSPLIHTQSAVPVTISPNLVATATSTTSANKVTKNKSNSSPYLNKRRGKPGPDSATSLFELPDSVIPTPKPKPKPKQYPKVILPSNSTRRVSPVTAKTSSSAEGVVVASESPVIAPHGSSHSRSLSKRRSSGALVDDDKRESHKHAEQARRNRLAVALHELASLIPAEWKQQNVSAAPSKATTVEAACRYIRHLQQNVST

Sequence | relative binding free energy
ATGCGCACGTGAGGGG | 0.01 kcal/mol
TTGTGCACGTGGGCGA | -0.24 kcal/mol
ATATGCACGTGGTGAT | -0.31 kcal/mol
ATTTTCACGTGATGTC | 0.34 kcal/mol
GGTCACACGTGGTGAT | 0.07 kcal/mol
TCGGTCACGTGGTTAA | 0.14 kcal/mol
GTGGACACGTGGGAGT | -0.05 kcal/mol
TGGTACACGTGTAATA | 0.33 kcal/mol
AGGGTCACGTGCTTGT | -0.07 kcal/mol
TAGGTCACGTGTAGAT | 0.26 kcal/mol
TTTTCCACGTGAATGT | 0.43 kcal/mol
CGTATCACGTGGGAGT | 0 kcal/mol
CGGTTCACGTGGGCGG | 0.09 kcal/mol
GTGCGCACGTGGGAGT | -0.11 kcal/mol
TGGAGCACGTGGTAGA | -0.05 kcal/mol
TTCGGCACGTGTTATG | -0.17 kcal/mol
ACTATCACGTGGAGGG | 0.08 kcal/mol
ATTAGCACGTGAAGGG | 0.19 kcal/mol
TGATTCACGTGAGGTT | 0.46 kcal/mol
AGACTCACGTGGGTGA | 0.08 kcal/mol
GGGATCACGTGTCGTA | 0.12 kcal/mol
GGATTCACGTGCTTTT | 0.34 kcal/mol
TGAAGCACGTGCAGTG | -0.1 kcal/mol

Sequence | relative binding free energy
TGTAGCACGTGAGGCG | 0.16 kcal/mol
AAAATCACGTGGTGGC | 0.2 kcal/mol
TTATTCACGTGTACTT | 0.07 kcal/mol
ATTGGCACGTGGGTTG | -0.23 kcal/mol
GTGTTCACGTGCTACG | 0.24 kcal/mol
GATGGCACGTGTATTG | -0.2 kcal/mol
AGGGGCACGTGCTTAT | -0.2 kcal/mol
AGGGGCACGTGTAAGG | -0.02 kcal/mol
AGTTTCACGTGGGCAA | 0.13 kcal/mol
TTGATCACGTGGGCTG | 0.07 kcal/mol
GGATGCACGTGTGCTT | -0.05 kcal/mol
AGGGACACGTGGTAGT | -0.01 kcal/mol
ATGGGCACGTGAGTTC | 0.2 kcal/mol
TTTCTCACGTGAGAGT | 0.41 kcal/mol
GGTGACACGTGGAATA | 0.08 kcal/mol
CTGTTCACGTGAGGTG | 0.27 kcal/mol
GCGTGCACGTGAGGGC | 0.26 kcal/mol
GGGTGCACGTGACAAG | 0.14 kcal/mol
TTTTTCACGTGATTTA | 0.26 kcal/mol
AGGGCCACGTGTGTGG | -0.09 kcal/mol
ATTAACACGTGTTTAT | -0.05 kcal/mol
ACTAGCACGTGTGGGC | 0.11 kcal/mol
GTGCTCACGTGGAGGC | 0.13 kcal/mol

Sequence | relative binding free energy
GCGGGCACGTGTTGGG | -0.08 kcal/mol
AGGGGCACGTGTTCGA | -0.2 kcal/mol
GATGGCACGTGCGTTT | -0.01 kcal/mol
TTTATCACGTGGCCTG | 0.18 kcal/mol
ACATACACGTGTTGGT | -0.03 kcal/mol
GAGGGCACGTGGGTCT | -0.19 kcal/mol
TGTCGCACGTGGTTTC | 0.01 kcal/mol
TTATGCACGTGTTTCT | 0.04 kcal/mol
TGTTTCACGTGGGTGC | 0.18 kcal/mol
GGAAACACGTGTATTG | 0.12 kcal/mol
TCGCTCACGTGTTGGG | 0.26 kcal/mol
TACTTCACGTGGTGTA | 0.09 kcal/mol
TGGTTCACGTGAGGCA | 0.23 kcal/mol
CTTGGCACGTGAATTT | 0.12 kcal/mol
GGTATCACGTGTGGGA | 0.3 kcal/mol
GTAAGCACGTGAGGTA | 0.16 kcal/mol
TTCTGCACGTGTGGGC | 0.11 kcal/mol
TTGATCACGTGTCTGT | -0.08 kcal/mol
TGAGTCACGTGGTCAT | -0.05 kcal/mol
GTATGCACGTGCTGGA | 0.01 kcal/mol
CTTGGCACGTGTTGTA | -0.02 kcal/mol
TTAGTCACGTGCTTTT | -0.01 kcal/mol
TTAGTCACGTGGCGGG | 0.1 kcal/mol

Sequence | relative binding free energy
GTTATCACGTGGTGGT | 0.15 kcal/mol
TGTGCCACGTGTAGTT | -0.05 kcal/mol
GGTTACACGTGGTATA | 0.04 kcal/mol
TAGGGCACGTGGCGGT | -0.12 kcal/mol
CGGGTCACGTGGGATA | 0.02 kcal/mol
TAGAGCACGTGGAATG | -0.09 kcal/mol
GTTAGCACGTGGTAGC | -0.09 kcal/mol
GGTAGCACGTGTAGTG | 0.07 kcal/mol
TACCTCACGTGGGGAT | 0.23 kcal/mol
CTTGACACGTGTGTTA | 0.01 kcal/mol
TGTAACACGTGATGGC | 0.16 kcal/mol
GGCAGCACGTGCAGGG | -0.1 kcal/mol
TAGGACACGTGTGTTG | 0.01 kcal/mol
TAATCCACGTGTGTTT | 0.08 kcal/mol
GGCAACACGTGGTGTA | -0.08 kcal/mol
ATTACCACGTGGTTAT | -0.1 kcal/mol
GGCGTCACGTGGTTTT | 0.19 kcal/mol
TCTTGCACGTGGTATA | -0.19 kcal/mol
GAAGTCACGTGTAGGC | 0.26 kcal/mol
ATTGGCACGTGTTCGG | -0.19 kcal/mol
CTAGGCACGTGAGTGA | 0.08 kcal/mol
GGTAGCACGTGTCGCG | 0 kcal/mol
TGAAGCACGTGTGTAC | 0.08 kcal/mol

Sequence | relative binding free energy
AGCGGCACGTGTTTTT | 0.13 kcal/mol
ACTTACACGTGGCGGT | 0.18 kcal/mol
AGTGGCACGTGATTCA | -0.01 kcal/mol
TAGTTCACGTGGAGTT | 0.37 kcal/mol
GGTGCCACGTGGGGAA | -0.11 kcal/mol
TGGAGCACGTGGGTTC | -0.08 kcal/mol
TAGTGCACGTGAGATA | 0.18 kcal/mol
TTCCTCACGTGTAGTT | 0.27 kcal/mol
AGGTTCACGTGTAACG | 0.25 kcal/mol
CGGGTCACGTGATATG | 0.16 kcal/mol
ATGAGCACGTGATAGA | 0.09 kcal/mol
GGGGACACGTGCGTGC | -0.13 kcal/mol
AGACGCACGTGGGCGG | -0.27 kcal/mol
TGCGACACGTGGTGTA | -0.07 kcal/mol
CTTTCCACGTGGTGTG | -0.01 kcal/mol
CAAGGCACGTGATGGG | -0.01 kcal/mol
GTTACCACGTGGTAGT | -0.11 kcal/mol
GGATGCACGTGCGATG | -0.1 kcal/mol
ATGGTCACGTGGGCTA | -0.12 kcal/mol
ATTATCACGTGGTGAC | 0.19 kcal/mol
TTTGTCACGTGGACGT | 0.2 kcal/mol
TAGGTCACGTGGAAGG | 0.13 kcal/mol
AGAGTCACGTGTTACT | 0.24 kcal/mol
